Values of other authors, collected in patent US20230201216A1, “AZELASTINE AS ANTIVIRAL TREATMENT” (priority 2020, published 2023).
Structures can show the parent of a compound that is named as a salt.

Tested on: SARS-CoV-2
Conditions: Vero E6 cells (not expressing TMPRSS2); ref. Hoffmann et al.; cited from earlier work

## CCN(CCO)CCCC(C)Nc1ccnc2cc(Cl)ccc12 (stereo not shown) [Hydroxychloroquine sulfate]
  anti-SARS-CoV-2 effect on Vero E6 cells: strong anti-SARS-CoV-2 effect
